The series relates to ATP. The experiment in a line: switch fluorescence ratio, 500 uM ATP over buffer (Cy3 cluster intensity, sum of 5 cycles each) (fold (ratio)); higher = stronger signal-on switching upon ATP binding; sequences stand for … in TCGTCGGCAGCGTCAGATGTGTATAAGAGACAGTTTTTTTTTTTTTTTTTTTTTTTTT…TC. The settings on record: aptamer strand: ATP DNA aptamer (quencher-CACCTGGGGGAGTATTGCGGAGGAAGG + anchor), 100 nM annealed; ATP concentration: 500 uM; one replicate. In outline: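 The quencher-labelled ATP aptamer, at 100 nM, was annealed to Cy3-labelled switching-strand clusters on a modified Illumina MiSeq flow-cell. The clusters were imaged in selection buffer, then after 15 min with 500 uM ATP at 22 °C, and this buffer/ATP cycle ran five times with NaOH stripping and re-annealing between runs. Per-cluster fluorescence ratios, summed target-cycle over summed buffer-cycle Cy3 intensity, were averaged per switch-domain sequence. Clusters outside 100-1000 RFU were excluded.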

Values marked as one replicate rest on one cluster of the flow cell; about a third of the high ones do not repeat.
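Also: ATP exposure 15 min at 22 °C before imaging.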

On to AGTCTGTCCA, for which the switch fluorescence ratio came to 1.01. To TGACTTAGGT belongs 1.06; to ACAGATGCTG, 1.03.

TTAGTGTGG: the switch fluorescence ratio was 0.967. As to TTATAAGGTA, the switch fluorescence ratio was 1.04. For CACAAGCTTC, the switch fluorescence ratio was found to be 1.17. Next, ATTTCCTCT: 1.07. Next, TTATTCCGAC: 1.48. Next, GCTTGTTATT: 0.982. Consider GATACATCCT, for which the switch fluorescence ratio stood at 1.06. Next, TAAGGCTAGC: 0.954; GATGTGTGTC: 0.981. To AATAATCATA belongs 0.942; to GTAAGAGAGC, 1.07; to GGCCTACGCT, 1.58. To TGCGTACAT belongs 1. In the case of TGGATATTAT, the switch fluorescence ratio was determined as 1.01. Next, CAACTTGTTT: 0.974.

Turning to CACACCCCTA, the switch fluorescence ratio came to 1.37. Next, TCGACACGGC: 1.09. To GTGAACGATT belongs 1.01. Next, AGTAATTAC: 1.01; AGATAGTAAA: 0.991; TTCCTACGTT: 1.18. With TGGAATCGCT, the switch fluorescence ratio came to 0.944. To CATACGCCAA belongs 7.48; to GCAGCGACCG, 1.15; to CAGTTAATTA, 1.01. To CGTGTGGAC belongs 1; to AACGCGTCA, 0.994. With TCACTGTGGA, the switch fluorescence ratio was 0.991.

For the sequence AGGCAATAAG, the switch fluorescence ratio was 1.12. Next, ATAAATCAAA: 1.02; AACGGACATT: 1.21. Next, TTTAAGATTG: 0.948; AGTACTACCT: 1.25.

On to TAATTTTATC, for which the switch fluorescence ratio came out at 0.99. With GTCTCTCGCG, the switch fluorescence ratio worked out at 0.99. As to CACTGCAGAG, the switch fluorescence ratio was found to be 1.03. To GGGGTTCCTA belongs 0.987. With ACACTTTCAT, the switch fluorescence ratio was 0.999. Next, CAAATCGGTC: 0.921. Next, CATACGGATG: 0.987. Take AGTATGAT: the switch fluorescence ratio was 1.01. Next, TGCATACCGG: 1.02.

On to GCAGCACGAA, for which the switch fluorescence ratio amounted to 1.26.

Take TCTGAGCGTT: the switch fluorescence ratio was found to be 1.01. Next, CGCTGAATTC: 1.27; TTATGATCGA: 0.902. To TTATGAATCT belongs 0.974; to CTCGGGTAT, 1.01; to GTTGCGGGCC, 0.918. Next, CGTAACTAAA: 0.964.

For the sequence CTAAGTAG, the switch fluorescence ratio came out at 1.19.

With TTGGTCACTC, the switch fluorescence ratio is 0.973. On to AAGAGAAGGA, for which the switch fluorescence ratio came to 0.949. As to TCGGTGCTA, the switch fluorescence ratio worked out at 1.03.

As to TGAGGTAAGT, the switch fluorescence ratio amounted to 1.01. To AGACTAATAC belongs 1.75; to TGTTAAGACC, 1.07; to TTAGGGCAAT, 1.83. Next, TAGGAGAGGC: 0.978; GTTAGCGACC: 1.04; AATGTATAGA: 0.992.

On to TTAAGTTCT, for which the switch fluorescence ratio was determined as 0.992. To CAACGACTAC belongs 1.6; to CGGCCTATTG, 1.02; to AGATGAGTTT, 1.01. To TCCAGTGAGT belongs 1.04. For the sequence TTCTTGTCTT, the switch fluorescence ratio is 0.99.

In the case of CACATACCGG, the switch fluorescence ratio was 1.34. Next, TGCTTGCGTG: 0.991. TGATGAGAAA: the switch fluorescence ratio was determined as 0.986. Next, GTTGTCATTA: 1.03; GTCGGCCTGA: 1; CCTAAGCGAT: 3.53. Next, TGGCTACACT: 0.983; CTGACTTTCT: 1.04; GAGCTGTTAA: 0.998.

In the case of ATCTTCCGG, the switch fluorescence ratio amounted to 1.28.

With CCGGTAGAAC, the switch fluorescence ratio was found to be 1.25. Next, GAGGGGCGAA: 1.01. Next, TGATGTTGAT: 0.977; GCACTGAGCT: 1.05. Next, AAGAATAGTT: 0.989; GCTCCAACCT: 1.57. For the sequence ATTATTCGG, the switch fluorescence ratio worked out at 1.01. Next, AGGCTGTCGC: 1.02. Next, GGAGGGGTAT: 1.03. To GAGGGAAGCA belongs 1.03; to TGCTAACCAT, 0.989.

For the sequence CGGCACAAT, the switch fluorescence ratio amounted to 1.2.

Turning to TACATCCGGC, the switch fluorescence ratio is 1.12. To AAATGGTCCG belongs 0.997. Next, GGTAGACCGA: 1.02; TACGAAGAGC: 1.04; AGCAGTTCCC: 1.29. Consider ATGGCATGGG, for which the switch fluorescence ratio came out at 0.986. Next, TATGTATTGG: 1.01. To TTAACCCGGC belongs 1.04; to TTATCGGGTA, 1; to AAGTGCGTA, 0.999. Turning to TTTTGCGTAC, the switch fluorescence ratio is 3.32. To GGGTAACCCG belongs 1.02; to GGTAGTCGCG, 0.951; to CGAATTTGTA, 1.02. To TTTGTGTTGA belongs 1; to ACGTATCAGT, 1.07. Next, GCTGTGATTG: 1.02; CGCATCACGG: 1.35; AAGCATATAG: 1.99. Consider ATCTGCCTG, for which the switch fluorescence ratio is 0.948. On to GAATCCTGAG, for which the switch fluorescence ratio came out at 1.15.

On to TGAGGCCCGA, for which the switch fluorescence ratio amounted to 1.06. Next, AAGAGCACCT: 1.06; ATATATTGTG: 1.02. Next, CAGGAGTTGG: 0.981; TGGTGTCATA: 0.97. To GAGCCAGGAT belongs 0.937; to CTTAATAGGA, 1.01.
